Data taken from PubChem BioAssay AID2546 (National Center for Advancing Translational Sciences (NCATS), 2010).
Screen size: about 310,000 compounds; about 11,000 (3.5%) were called active. Inconclusive results, whose numbers are uncertain, are shown with a selection of clear calls. Calls come from the whole dose curve; as a rule, active = well fitted inhibition curve with a large enough effect; inconclusive = small, poorly fitted or top-dose-only effect, or effect the other way; inactive = flat fitted curve, though single readings scatter. Potencies of inconclusive entries are left out as doubtful fits.

Experiment: VP16 counterscreen qHTS for inhibitors of ROR gamma transcriptional activity;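 note: Gal4-VP16 expression switched on by copper sulfate through the metallothionein promoter; nearly all actives have a fitted effect of over 50% in size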
Details: Drosophila S2 Gal4-VP16 UAS-luciferase, luminescence, 20 h; series mostly up to 53.6 µM
Potency is the fitted concentration of half-maximal effect; tags give direction and shape of the fitted curve.

Which Potency does the source give for O=C(COC(=O)/C=C/C(=O)OCC(=O)NC12CC3CC(CC(C3)C1)C2)NC12CC3CC(CC(C3)C1)C2 here?
Its Potency is “inactive”.

Which Potency does the source give for O=C(Nc1nc2ccccc2n1Cc1ccccc1)c1ccco1 here?
Its Potency is active: 2.51 µM.

Which Potency does the source give for CC(=O)NC(c1ccc2ccccc2c1)c1ccc2cccnc2c1O (stereo not drawn) here?
The Potency was active: 1.58 µM.

Which Potency does the source give for Oc1ccc(NC(=S)N=Nc2c(O)[nH]c3ccc(Br)cc23)cc1 here?
The Potency was inconclusive [inhibitor, single point].

With CCCCn1nnc(NC(=S)NC(=O)c2cccs2)n1 as the molecule, how does the Potency read?
Its Potency is active: 1 µM.

With CC1(C(=O)NC(=S)N(CCC#N)c2ccccc2)CC1(Cl)Cl (stereo not drawn) as the molecule, how does the Potency read?
The Potency was inconclusive [inhibitor, single point].

Which Potency does the source give for O=C(/C=C/c1c(F)cccc1Cl)Nc1nc2ccccc2[nH]1 here?
Its Potency is inconclusive [inhibitor, partial curve].

With CCC[N+](CC#Cc1ccccc1)(CCC)CC(=O)OC as the molecule, how does the Potency read?
Its Potency is inconclusive [activator, single point].

With CCCC(=O)NC(=S)Nc1cccc(Cl)c1N1CCCCC1 as the molecule, how does the Potency read?
Its Potency is active: 1 µM.

With Clc1ccc(CNc2nc(CN3CCOCC3)nc3scc(-c4ccccc4)c23)cc1 as the molecule, how does the Potency read?
Its Potency is active: 8.91 µM.

For CCOc1ccccc1NC(=O)CN1CCc2ccccc2C1, which Potency is on record?
The Potency was inconclusive [inhibitor, single point].

Which Potency does the source give for Cn1c(SC2=CS(=O)(=O)c3ccccc32)nc2ccccc21 here?
Its Potency is inconclusive [inhibitor, single point].

With OCCCCCNc1ncnc2ccccc12 as the molecule, how does the Potency read?
Its Potency is inconclusive [inhibitor, single point].

With Cc1nn(CCC(N)=S)c2nc(-c3cccs3)cc(C(F)(F)F)c12 as the molecule, how does the Potency read?
The Potency was active: 6.31 µM.

For O=C(NC(=S)Nc1ccc(N2CCOCC2)cc1)c1ccc2c(c1)OCCO2, which Potency is on record?
The Potency was inconclusive [inhibitor, single point].

For CC1CCCCN1S(=O)(=O)c1ccc(C(=O)Nc2sccc2C(N)=O)cc1 (stereo not drawn), which Potency is on record?
The Potency was inconclusive [inhibitor, single point].

Which Potency does the source give for O=C(CSc1nnc(-c2ccc(OC(F)F)cc2)o1)NCc1cccs1 here?
The Potency was inconclusive [inhibitor, partial curve].

For Cc1nnc(SCC(=O)Nc2ccc(O)cc2)c2ccccc12, which Potency is on record?
Its Potency is “inactive”.

Which Potency does the source give for O=C(/C(=C/c1ccccc1)n1cncn1)c1ccc(Cl)cc1Cl here?
The Potency was inconclusive [inhibitor, single point].

With Cc1ccc2c(c1)C1(C(=O)N2)N2CCCC2C(C(=O)c2ccc3ccccc3c2)C12C(=O)Nc1ccccc12 (stereo not drawn) as the molecule, how does the Potency read?
Its Potency is inconclusive [activator, partial curve].

Which Potency does the source give for Cc1ccc(CSc2nn3c(=O)c(C)nnc3s2)cc1 here?
Its Potency is inconclusive [activator, single point].

Which Potency does the source give for CCN1CCN(Cc2ccc(NC(=O)c3cc(NC(=O)c4ccno4)cc(OC)c3)cc2C(F)(F)F)CC1 here?
Its Potency is “inactive”.

For O=C(NCC1(c2ccccc2)CCCC1)C(=O)NCC1(c2ccccc2)CCCC1, which Potency is on record?
Its Potency is “inactive”.

For Cc1ccc(F)c(C2C3C=CCC(C)C3C(=O)N2Cc2ccccc2)c1 (stereo not drawn), which Potency is on record?
The Potency was inconclusive [inhibitor, single point].

For COc1cc(/C=N/NC(=S)NCCN2CCOCC2)cc(OC)c1OC, which Potency is on record?
Its Potency is inconclusive [inhibitor, single point].

For O=C(NNC(=S)Nc1cccc(C(F)(F)F)c1)c1ccc(Cl)cc1Cl, which Potency is on record?
Its Potency is inconclusive [inhibitor, single point].

Which Potency does the source give for Cc1nn(C)c(C)c1CCC(=O)N1CCCC(N2CCN(c3ccc(F)cc3)CC2)C1 (stereo not drawn) here?
The Potency was “inactive”.

For CN(CCCC(=O)O)S(=O)(=O)c1ccc2c(c1)C(=O)c1cc(S(=O)(=O)N(C)CCCC(=O)O)ccc1-2, which Potency is on record?
Its Potency is “inactive”.

Which Potency does the source give for O=S(=O)(NCC(Nc1ccc(Cl)cc1)c1ccccc1)c1ccc(Cl)cc1 (stereo not drawn) here?
The Potency was inconclusive [inhibitor, single point].

Which Potency does the source give for CCc1ccc(N2C(=O)CC(N(CC3CCCO3)C(=O)/C=C/C(=O)O)C2=O)cc1 (stereo not drawn) here?
Its Potency is “inactive”.

For O=C(COc1ccc(S(=O)(=O)N2CCCC2)cc1)N1CCCCC1, which Potency is on record?
The Potency was “inactive”.

With Cn1c(=O)c2c(nc(NCc3ccccc3)n2Cc2ccc(F)cc2)n(C)c1=O as the molecule, how does the Potency read?
The Potency was active: 14.1 µM.

Which Potency does the source give for CC(=O)Nc1cccc(-c2cc(C)c3cc4c(cc3n2)OCO4)c1 here?
The Potency was inconclusive [activator, full curve, poor fit].

For Cc1ccc(N/C=C2/Sc3ccccc3NC2=O)cc1, which Potency is on record?
The Potency was inconclusive [inhibitor, single point].

Which Potency does the source give for CC(C)=CCC/C(C)=C/CC/C(C)=C/CC/C(C)=C/CC1=C(C)C(=O)c2ccccc2C1=O here?
The Potency was “inactive”.

Which Potency does the source give for CCOC(=O)C1=C(C)N(C)C(=S)NC1c1cccc(Cl)c1Cl (stereo not drawn) here?
The Potency was inconclusive [inhibitor, single point].

Which Potency does the source give for CCCC1(c2ccccc2)NC(=O)N(CC(=O)NCc2ccc(OC)cc2)C1=O (stereo not drawn) here?
The Potency was “inactive”.

Which Potency does the source give for Cn1c(=O)c2c(nc(NCc3ccco3)n2CC(O)COc2ccccc2)n(C)c1=O (stereo not drawn) here?
Its Potency is inconclusive [inhibitor, single point].

Which Potency does the source give for CN1[C@H](Cc2ccccc2)C=C[C@]1(C)C(=O)NCC1CC1 here?
The Potency was “inactive”.

With COc1cc(O)c(C)c(O)c1 as the molecule, how does the Potency read?
Its Potency is “inactive”.

Which Potency does the source give for CCCOC(=O)N1CCN(/[N+]([O-])=N/Oc2ccc([N+](=O)[O-])cc2[N+](=O)[O-])CC1 here?
Its Potency is inconclusive [inhibitor, single point].

With Cc1cc(-c2ccc(Br)s2)nc(-n2cccc2)n1 as the molecule, how does the Potency read?
The Potency was “inactive”.

Which Potency does the source give for Cc1ccc(C(c2c(O)nc3n(c2=O)CCS3)c2c(O)nc3n(c2=O)CCS3)cc1 here?
The Potency was “inactive”.

With CCOc1ccc(C(=O)CC(Sc2ccc(C)cc2)C(=O)O)cc1 (stereo not drawn) as the molecule, how does the Potency read?
Its Potency is inconclusive [inhibitor, single point].

For COc1ccc(OC)c(NC(=O)c2cc3sccc3n2C)c1, which Potency is on record?
Its Potency is “inactive”.

Which Potency does the source give for CC1=CC(=O)C=CC1(C)C(Cl)(Cl)Cl (stereo not drawn) here?
Its Potency is inconclusive [inhibitor, single point].

Which Potency does the source give for N/C(Cc1ccc(Cl)cc1)=N\OC(=O)c1cccc2ccccc12 here?
The Potency was active: 10 µM.

With O=C(N/N=C/c1ccc(Br)o1)/C(=C/c1ccc([N+](=O)[O-])cc1)NC(=O)c1ccccc1 as the molecule, how does the Potency read?
The Potency was inconclusive [inhibitor, single point].
